SMILES strings stand for the structures. In all, about 39,000 compounds went through this assay and about 220 (0.56%) showed activity. The list shows a part of the results.
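Further: static incubation at 37 °C against the wild-type strain, values averaged over two biological replicates.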

The assay has as its system Escherichia coli K-12 BW25113. Kind of assay: relative growth (OD600 normalised to plate interquartile mean) (fraction); higher = less growth inhibition, active = 0.2 or less. The following applies: 50 µM; LB; incubation time: overnight (16-24 h).
On to `CCCCCCCCCC(=O)O[C@@H]1[C@@H](C)[C@]2(O)[C@@H](C=C(CO)C[C@]3(O)C(=O)C(C)=C[C@@H]23)[C@@H]2C(C)(C)[C@@]12OC(=O)CCCCCCCCC`, for which the relative growth is inactive: 1.03.
`NCCc1cccc(O)c1`: the relative growth was inactive: 0.993.
The value for `C[C@H]1CN([C@@H](C)CO)C(=O)c2c(c3ccccc3n2C)-c2ccccc2CO[C@@H]1CN(C)C(=O)Oc1ccccc1` was inactive: 0.96; that for `COP(=O)(OC)OC(Br)C(Cl)(Cl)Br` (stereo unspecified) was inactive: 0.945; that for `COC(=O)C1=CCCN(C)C1` was inactive: 1.02.
The value for `O=S(=O)(O)O.Oc1cccc2cccnc12` was active: 0.0986; that for `CC1(C)C(=O)C=CC2(C)C1=C(O)C(=O)C1(C)C2CCC2(C)C(c3ccoc3)CC3OC321` (stereo unspecified) was inactive: 1.07; that for `O=C(NC(=O)c1c(F)cccc1F)Nc1cc(Cl)c(OC(F)(F)C(F)C(F)(F)F)cc1Cl` (stereo unspecified) was inactive: 1.18.
The value for `Cl.Oc1noc2c1CCNC2` was inactive: 1.07; that for `Cc1scc(CCN)c1C` was inactive: 1.01.
With `CN1CCN([C@@H](CN)c2ccc3c(c2)OCO3)CC1`, the relative growth was inactive: 0.977.
With `C[C@@H]1CN([C@@H](C)CO)C(=O)CCCn2cc(nn2)CO[C@@H]1CN(C)C(=O)Oc1ccc2ccccc2c1`, the relative growth is inactive: 0.955.
The value for `C=CC=CCC1=C(C)C(OC(=O)C2C(C=C(C)C)C2(C)C)CC1=O` (stereo unspecified) was inactive: 1.02; that for `CCN1C[C@]2(COC)CC[C@H](O)[C@@]34[C@@H]2[C@@H](OC)[C@@H]([C@@H]13)[C@@]1(OC(C)=O)C[C@H](OC)[C@H]2C[C@H]4[C@@H]1[C@@H]2OC(C)=O` was inactive: 1.
For `CSC1=NN1c1cc(C)nc(N)n1`, the relative growth is inactive: 1.03.
Consider `[N-]=[N+]=NCC(=O)N1CCOCC1`, for which the relative growth is inactive: 0.981.
The value for `CC(C)[C@@]1(NC(=O)[C@@H]2C[C@@H]3c4cccc5[nH]cc(c45)C[C@H]3N(C)C2)O[C@@]2(O)[C@@H]3CCCN3C(=O)[C@H](Cc3ccccc3)N2C1=O` was inactive: 1; that for `NC1=NC(=O)C2(CCNCC2)N1` was inactive: 1.02.
On to `O=C1C[C@@H](CO)CN1`, for which the relative growth is inactive: 0.993.
The value for `O=C1C=C2C(=CCOC2O)O1` (stereo unspecified) was active: 0.0434.
The value for `Cl.NCC(O)c1ccc(O)cc1` (stereo unspecified) was inactive: 1.08; that for `O=[N+]([O-])OC1COC2C(O)COC12` (stereo unspecified) was inactive: 1.2; that for `N#CN1CCCC1` was inactive: 1.
The value for `c1csc(N2CCNCC2)n1` was inactive: 1; that for `CCC1(O)C(=O)OCc2c1cc1n(c2=O)Cc2cc3ccccc3nc2-1` (stereo unspecified) was inactive: 0.976; that for `O=C1CCCN1CC#CCN1CCCC1` was inactive: 1.04.
Regarding `C[N+]1(C)C2CCC1CC(OC(=O)C(CO)c1ccccc1)C2.O=[N+]([O-])[O-]` (stereo unspecified), the relative growth is inactive: 1.03.
The value for `COCCCNC(=O)C1[C@@H]2CC[C@H]1CNC2` (stereo partly specified) was inactive: 0.963.
For `C1CCC(NC2CCCC2)CC1`, the relative growth is inactive: 0.983.
With `NCCc1ccccn1`, the relative growth is inactive: 1.01.
The value for `C=CCOC(=O)[C@@H]1[C@@H](C(=O)OC)N(C)[C@@H](c2ccccc2)[C@]12C(=O)Nc1ccc(I)cc12` was inactive: 0.998; that for `NC1Cc2ccccc2C1` was inactive: 0.985; that for `CC(C)Oc1ccccc1CCN` was inactive: 1.
Regarding `CC(C)=CCCC1(C)C=Cc2c(O)c3c(c(CC=C(C)C)c2O1)OC12C(=CC4CC1C(C)(C)OC2(CC=C(C)C(=O)O)C4=O)C3=O` (stereo unspecified), the relative growth was inactive: 1.01.
For `Oc1cc(Cl)ccc1Oc1ccc(Cl)cc1Cl`, the relative growth was active: 0.0446.
On to `CCOC(=O)c1c(CN2CCN(Cc3ccccc3)CC2)n(Cc2ccccc2)c2cc(Br)c(O)cc12`, for which the relative growth was inactive: 1.04.
The value for `CC1(C)C(C=C(Cl)Cl)C1C(=O)OC(C#N)c1cccc(Oc2ccccc2)c1` (stereo unspecified) was inactive: 0.883; that for `C=C1[C@@H](C)[C@H]2[C@H](Cc3ccccc3)NC(=O)[C@]23[C@H](OC(C)=O)/C=C/[C@](C)(O)C(=O)[C@@H](C)C/C=C/[C@H]3[C@@H]1O` was inactive: 0.976; that for `CC(C)(C#N)O[C@@H]1O[C@H](CO)[C@@H](O)[C@H](O)[C@H]1O` was inactive: 1.03.
The value for `COc1cccc(-c2ccc3c(CCN)c[nH]c3c2)c1` was inactive: 0.996.
The value for `CO/C1=C\C(C)=C\[C@@H](C)[C@@H](O)[C@@H](C)C/C(C)=C/C=C/[C@H](OC)[C@@H]([C@@H](C)[C@@H](O)[C@H](C)C(=O)/C=C/[C@H](C)[C@H](O)C(C)C)OC1=O` was inactive: 0.965.

Values taken from the supplement of paper PMC9446081.
